Laboratory results reported in article PMC11753200 (Organic & Biomolecular Chemistry, 2025).
In brackets after ≈: the same amount, converted by molar mass.

Columns and labels:
S. aureus 138 = experiment: microbe, parasite or virus in culture; type: cell-based, Staphylococcus aureus
MRSE 35984 biofilms = experiment: Calgary Biofilm Device assay; type: cell-based; conditions: Staphylococcus epidermidis, read-out: MBC MRSE 35984
MRSA 1707 biofilms = experiment: Calgary Biofilm Device assay; type: cell-based; conditions: Staphylococcus aureus, read-out: MBC MRSA 1707
[1] = LDH release assay for HeLa cytotoxicity; type: cell-based; conditions: human, HeLa cells
[2] = Hemolysis assay with red blood cells; type: cell-based; conditions: human, human red blood cells (2% hRBC suspension), pH 7.2
MRSA 44 biofilms = experiment: Calgary Biofilm Device assay; type: cell-based; conditions: Staphylococcus aureus, read-out: MBC MRSA 44
MRSA 2 = experiment: microbe, parasite or virus in culture; type: cell-based, Staphylococcus aureus; conditions: for MBEC MRSA 2: CBD assay, clinical isolate
S. aureus 156 = experiment: microbe, parasite or virus in culture; type: cell-based, Staphylococcus aureus
S. aureus 147 = experiment: microbe, parasite or virus in culture; type: cell-based, Staphylococcus aureus; conditions: for MBEC S. aureus 147: CBD assay, clinical isolate; for MBC: Staphylococcus aureus, 147, read-out: MBC S. aureus 147
[3] = tested on: USA300 S. aureus carrying pCM29_GFP biofilms; experiment: Confocal microscopy of pre-formed MRSA biofilms; type: cell-based, Staphylococcus aureus; conditions: 25 μM
S. aureus 129 = experiment: microbe, parasite or virus in culture; type: cell-based, Staphylococcus aureus; conditions: for MBEC S. aureus 129: CBD assay, clinical isolate; for MBC: Staphylococcus aureus, 129, read-out: MBC S. aureus 129
[4] = tested on: S. epidermidis 12228 biofilms; experiment: Calgary Biofilm Device assay; type: cell-based, Staphylococcus epidermidis
MRSA and MRSE biofilms = experiment: Calgary Biofilm Device assays, MRSA and MRSE; type: cell-based
dormant Mtb CDC1551 = experiment: MIC against dormant Mtb; type: cell-based, Mycobacterium tuberculosis; conditions: dormant vs replicating Mtb
VRE 700221 = experiment: MIC broth microdilution; type: cell-based, Enterococcus faecium; conditions: Enterococcus, read-out: MIC VRE 700221
VRE 700221 biofilms = experiment: Calgary Biofilm Device assay; type: cell-based, Enterococcus faecium; conditions: Enterococcus, read-out: MBC VRE 700221
MRSA clinical isolates = experiment: Calgary Biofilm Device assays across MRSA clinical isolates; type: cell-based; conditions: Staphylococcus aureus, read-out: MBC against MRSA clinical isolates
MRSA 1 = experiment: microbe, parasite or virus in culture; type: cell-based, Staphylococcus aureus

Row | SMILES | MBC (MRSE 35984 biofilms) | MBC (MRSA 1707 biofilms) | hemolysis at 1 h, 200 µM [2] | MBEC MRSA 2 (MRSA 2) | MBEC S. aureus 147 (S. aureus 147) | MBC (S. aureus 147) | MBEC S. aureus 129 (S. aureus 129) | MBC (S. aureus 129) | MBEC against MRSA and MRSE biofilms (MRSA and MRSE biofilms) | further results
1 | Oc1c(Br)cc(Br)c2nc3ccccc3nc12 [Compound 1, 2,4-dibromo-1-hydroxyphenazine] | 50 µM (≈ 17.7 µg/mL) | 50 µM (≈ 17.7 µg/mL) | ≤ 1% | ≥ 200 µM | ≥ 200 µM | 50 µM (≈ 17.7 µg/mL) | > 200 µM | 75 µM (≈ 26.6 µg/mL) |  | MBEC S. aureus 138 (S. aureus 138; CBD assay, clinical isolate): 200 µM; MBC (S. aureus 138; Staphylococcus aureus, 138, read-out: MBC S. aureus 138): 50 µM (≈ 17.7 µg/mL); IC50 at 24 h [1]: > 100 µM; MBC (MRSA 44 biofilms): 100 µM (≈ 35.4 µg/mL); MBEC S. aureus 156 (S. aureus 156; CBD assay, clinical isolate): ≥ 200 µM; MBC (S. aureus 156; Staphylococcus aureus, 156, read-out: MBC S. aureus 156): 50 µM (≈ 17.7 µg/mL); biofilm height ([3]; 24-hour treatment, untreated ∼30 μm): ~20 μm; polysaccharide matrix of MRSA biofilm ([3]; concanavalin A Texas Red stain): much less dense than the untreated biofilms; MBEC S. epidermidis 12228 ([4]; CBD assay): 50 µM; MBC ([4]; Staphylococcus epidermidis, read-out: MBC S. epidermidis 12228): 25 µM (≈ 8.85 µg/mL)
2 | O=C(O)CN(CCN(CC(=O)O)CC(=O)O)CC(=O)O [EDTA, Ethylenediaminetetraacetic acid] | 1000 µM (≈ 292 µg/mL) | > 2000 µM | ≤ 1% |  |  |  |  |  | > 2000 µM | 
3 | NNC(=O)c1ccncc1 [Isoniazid] |  |  |  |  |  |  |  |  |  | tolerance of dormant Mtb relative to replicating bacteria (dormant Mtb CDC1551): more than 1000 times
4 | c1ccc(CN(CCN(Cc2ccccn2)Cc2ccccn2)Cc2ccccn2)nc1 [TPEN, N,N,N′,N′-Tetrakis(2-pyridinylmethyl)-1,2-ethanediamine] | 250 µM (≈ 106 µg/mL) |  | ≤ 1% |  |  |  |  |  | > 2000 µM | 
5 | CN[C@H](CC(C)C)C(=O)N[C@H]1C(=O)N[C@@H](CC(N)=O)C(=O)N[C@H]2C(=O)N[C@H]3C(=O)N[C@H](C(=O)N[C@H](C(=O)O)c4cc(O)cc(O)c4-c4cc3ccc4O)[C@H](O)c3ccc(c(Cl)c3)Oc3cc2cc(c3O[C@@H]2O[C@H](CO)[C@@H](O)[C@H](O)[C@H]2O[C@H]2C[C@](C)(N)[C@H](O)[C@H](C)O2)Oc2ccc(cc2Cl)[C@H]1O [Vancomycin] | 3 µM (≈ 4.35 µg/mL) | 3.9 µM (≈ 5.65 µg/mL) | ≤ 1% | > 2000 µM | > 2000 µM | 5.9 µM (≈ 8.55 µg/mL) | > 2000 µM | 5.9 µM (≈ 8.55 µg/mL) | > 2000 µM | MIC (VRE 700221): > 100 µM; MBC (MRSA and MRSE biofilms; read-out: MBC against MRSA and MRSE): 3 to 7.8 µM (≈ 4.35 to 11.3 µg/mL); MBC (VRE 700221 biofilms): > 200 µM; MBC (MRSA 2; Staphylococcus aureus, MRSA, read-out: MBC MRSA 2): 5.9 µM (≈ 8.55 µg/mL); MBC (MRSA clinical isolates): 3 to 7.8 µM (≈ 4.35 to 11.3 µg/mL); MBEC MRSA 1 (MRSA 1; CBD assay, clinical isolate): > 2000 µM; MBC (MRSA 1; Staphylococcus aureus, MRSA, read-out: MBC MRSA 1): 3 µM (≈ 4.35 µg/mL)
